Measured values as given in the supplement of paper PMC3334620.
Over roughly 33,000 sequences, “E-score (-0.5 to 0.5)” has its median near -0.036; the highest 2% begin near 0.37. The list shows a part of the results.

molecular target: T1, Yer064c (UniProt P40041); assay: PBM E-score (8-mer binding enrichment) (E-score (-0.5 to 0.5)); higher = stronger / more preferred TF binding; most listed sequences are background and not binding sites; details: protein concentration: 200 nM; construct: GST-full length
T1 sequence: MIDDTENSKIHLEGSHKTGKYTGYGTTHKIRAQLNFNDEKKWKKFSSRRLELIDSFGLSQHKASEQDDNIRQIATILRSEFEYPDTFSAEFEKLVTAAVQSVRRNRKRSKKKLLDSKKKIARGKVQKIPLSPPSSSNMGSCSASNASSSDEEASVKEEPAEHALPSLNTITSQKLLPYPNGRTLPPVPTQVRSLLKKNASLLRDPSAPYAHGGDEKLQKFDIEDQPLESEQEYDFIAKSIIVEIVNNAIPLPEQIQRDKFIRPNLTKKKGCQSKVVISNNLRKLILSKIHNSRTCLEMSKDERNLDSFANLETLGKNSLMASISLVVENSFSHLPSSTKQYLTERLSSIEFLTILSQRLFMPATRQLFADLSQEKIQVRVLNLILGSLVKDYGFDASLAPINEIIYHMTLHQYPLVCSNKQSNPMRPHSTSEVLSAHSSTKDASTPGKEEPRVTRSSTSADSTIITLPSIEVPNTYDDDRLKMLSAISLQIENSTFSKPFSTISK
Description: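 Universal 'all 10-mer' protein binding microarrays (Agilent AMADID 015681) probed with GST-tagged S. cerevisiae TFs (full-length or DBD) made by in vitro transcription/translation (PURExpress), about 100-200 nM. Bound TF was detected with fluorescent anti-GST. Each ungapped 8-mer (which stands for itself and its reverse complement) is scored by the PBM enrichment score (E-score), a modified Wilcoxon-Mann-Whitney statistic from -0.5 to +0.5, computed with the Universal PBM Analysis Suite. Scale: above 0.35 generally sequence-specific binding.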

Going from CCAAAGTC to CGTTTTGC, the “PBM E-score” value falls from 0.23 to -0.134.

Going from GGCTGGAA to ATGTGTCC, the “PBM E-score” value rises from -0.0188 to 0.0701.

First: AACTAAGT
Second: CGTGAGAG
The “PBM E-score” value of the first is higher: 0.246 for the first, -0.255 for the second.

First: GGCCAAGA
Second: CCTTCACG
The “PBM E-score” value of the first is higher: -0.016 for the first, -0.0437 for the second.

First: CCCTGCAG
Second: CTCGATGC
The “PBM E-score” value of the first is lower: -0.106 for the first, -0.0842 for the second.

First: GGCTACTA
Second: ACGATCAT
The “PBM E-score” value of the first is lower: 0.0101 for the first, 0.125 for the second.

First: CATCCCAA
Second: CAGACAGA
The “PBM E-score” value of the first is higher: -0.00075 for the first, -0.0203 for the second.

Going from GGTACGAC to GCACTCCA, the “PBM E-score” value falls from 0.0767 to -0.145.

Going from ACTTTCAG to CACTCCGC, the “PBM E-score” value rises from -0.0592 to -0.0571.

First: GCCGAGAC
Second: CATATCTC
The “PBM E-score” value of the first is higher: -0.00523 for the first, -0.0513 for the second.

Compared with AAGTACGT, CGGGATCA is lower in “PBM E-score” value: 0.115 for the first, -0.213 for the second.

First: ATCGCTTG
Second: AGCCCAAT
The “PBM E-score” value of the first is higher: -0.0176 for the first, -0.133 for the second.

Compared with ACGAATGC, GTCGGCAC is lower in “PBM E-score” value: 0.0107 for the first, -0.0765 for the second.

Going from CCACTGGG to CCTTTGTA, the “PBM E-score” value rises from -0.0826 to -0.0346.

Compared with AGGCAATC, ACTTTTCA is lower in “PBM E-score” value: 0.138 for the first, -0.00764 for the second.

Going from AAAATAAC to AGCACACG, the “PBM E-score” value falls from 0.0567 to -0.0785.

Compared with CACGTGAA, CGCCGAAA is higher in “PBM E-score” value: -0.0684 for the first, -0.059 for the second.

Compared with CGGACATC, TATGGAAA is higher in “PBM E-score” value: -0.359 for the first, -0.0802 for the second.

First: CCTACTAG
Second: CAGGATCA
The “PBM E-score” value of the first is higher: 0.159 for the first, -0.0136 for the second.

Compared with CAGGGTAA, AGTGGATC is lower in “PBM E-score” value: 0.153 for the first, -0.0836 for the second.

Going from ATATGGCG to GGTCAAGA, the “PBM E-score” value rises from -0.193 to -0.0401.

Going from CGCGGACC to ATATCTCC, the “PBM E-score” value rises from -0.262 to -0.144.

Compared with GTGAAGAA, ATGGACAG is lower in “PBM E-score” value: 0.0288 for the first, -0.115 for the second.

First: AGGTGCAA
Second: GTCGAGAA
The “PBM E-score” value of the first is lower: -0.0491 for the first, -0.0113 for the second.

Going from CCCCAAAG to GGAAATCA, the “PBM E-score” value rises from -0.169 to 0.292.

Going from CAACGAAG to ATATGTTG, the “PBM E-score” value falls from -0.0515 to -0.0992.

Going from CTACCAAG to AGCGTACT, the “PBM E-score” value falls from -0.00418 to -0.0503.

Going from AAGGCCAG to TACTTGAA, the “PBM E-score” value rises from -0.349 to 0.115.

Going from GCAGTACA to AGGGCGGG, the “PBM E-score” value falls from 0.0354 to -0.114.

Compared with AGACCAAT, GGATTACA is higher in “PBM E-score” value: -0.0553 for the first, 0.0898 for the second.

Compared with ACACACAC, CGAGAATA is lower in “PBM E-score” value: 0.141 for the first, -0.0825 for the second.

Compared with GAAGGGGC, TGAGAACA is higher in “PBM E-score” value: -0.307 for the first, 0.0377 for the second.

First: CATCGGCA
Second: CATCTTGG
The “PBM E-score” value of the first is higher: -0.0567 for the first, -0.163 for the second.

Compared with AGTGATAT, CGAAGTAC is higher in “PBM E-score” value: -0.134 for the first, -0.00769 for the second.

Going from ATCCGCTC to ATCGCCAT, the “PBM E-score” value rises from -0.166 to 0.01.

First: AAACGCGA
Second: GTCGCGTA
The “PBM E-score” value of the first is lower: -0.0525 for the first, 0.139 for the second.

First: AAGCGAGT
Second: ACTTATAG
The “PBM E-score” value of the first is higher: 0.27 for the first, 0.11 for the second.

First: ATAAAGAC
Second: ATTAAAAG
The “PBM E-score” value of the first is higher: 0.196 for the first, 0.13 for the second.

Compared with AATAGAGG, ATCTTACG is higher in “PBM E-score” value: -0.144 for the first, 0.209 for the second.

Going from AAGTTTGG to CCGCCGAG, the “PBM E-score” value falls from -0.0296 to -0.128.

Going from AACTGCGG to CGACAACG, the “PBM E-score” value rises from -0.293 to 0.107.

Going from ATTAACGA to AACATGTC, the “PBM E-score” value falls from 0.199 to -0.128.

First: GACAGACA
Second: ATTATCTG
The “PBM E-score” value of the first is lower: 0.0624 for the first, 0.082 for the second.

Going from AGTTTATC to CTTTGCCA, the “PBM E-score” value falls from -0.0467 to -0.147.

First: ATTGCGGC
Second: CTGGAGGC
The “PBM E-score” value of the first is lower: -0.164 for the first, -0.088 for the second.

Going from AATTCTTA to CCCGGGAA, the “PBM E-score” value falls from 0.0531 to 0.0078.

Going from ATTCGGGA to CCATCGTA, the “PBM E-score” value rises from -0.0942 to 0.178.

Compared with ACCGCAAA, AGGTTAAC is higher in “PBM E-score” value: 0.00358 for the first, 0.161 for the second.

Going from CATTGACG to CCGTAGCA, the “PBM E-score” value falls from 0.148 to -0.159.

Going from GAACGAAA to ATAGAGTC, the “PBM E-score” value rises from -0.267 to 0.371.

First: ACCTTTGC
Second: GGTACTTA
The “PBM E-score” value of the first is higher: 0.0444 for the first, -0.0396 for the second.

Compared with CCAGTGGG, ACACGTCC is lower in “PBM E-score” value: -0.129 for the first, -0.282 for the second.

Compared with CCGTCCGA, CCGGGAAG is higher in “PBM E-score” value: -0.287 for the first, -0.0937 for the second.

First: AAGATCGC
Second: AGAGTATG
The “PBM E-score” value of the first is lower: -0.183 for the first, -0.048 for the second.

First: CGATACAG
Second: CCAATTTC
The “PBM E-score” value of the first is higher: -0.159 for the first, -0.181 for the second.

First: CAGTAGCC
Second: AAATCGCT
The “PBM E-score” value of the first is higher: -0.116 for the first, -0.118 for the second.

Going from ACGGTCCA to CCCCGCTC, the “PBM E-score” value rises from -0.179 to -0.131.

Going from GCTATATA to CGATCAAC, the “PBM E-score” value falls from 0.00598 to -0.117.

First: ACCGCCCC
Second: ACATCACG
The “PBM E-score” value of the first is lower: -0.0587 for the first, -0.0358 for the second.

Going from TACACTAA to ATGAGATG, the “PBM E-score” value falls from 0.0746 to 0.0267.

First: CTTTGCTC
Second: AAAGAGCC
The “PBM E-score” value of the first is higher: 0.0112 for the first, -0.211 for the second.

First: ATGGCCTG
Second: AGCTTAAG
The “PBM E-score” value of the first is lower: -0.261 for the first, -0.0387 for the second.

First: TAGCTGAA
Second: GTCTGCAC
The “PBM E-score” value of the first is higher: -0.0452 for the first, -0.138 for the second.

Compared with AGTTCCCG, AGCAAGAA is higher in “PBM E-score” value: -0.251 for the first, -0.0714 for the second.

First: AACTAGGC
Second: CGCTTCCG
The “PBM E-score” value of the first is higher: -0.0546 for the first, -0.297 for the second.

Compared with CAGTCCTA, ACCGGACT is lower in “PBM E-score” value: 0.183 for the first, 0.0887 for the second.

Going from GAGTTGAC to GAGCCAAC, the “PBM E-score” value falls from 0.167 to -0.0982.

First: CAGCGATG
Second: CATCAGAA
The “PBM E-score” value of the first is higher: 0.0562 for the first, -0.0826 for the second.

Compared with AGGGCTGC, GAAACCCC is higher in “PBM E-score” value: -0.346 for the first, -0.187 for the second.

Compared with ATTTCGGA, GTGTGTCA is higher in “PBM E-score” value: -0.0687 for the first, 0.089 for the second.

Compared with GGGTTTGA, GGACACGA is lower in “PBM E-score” value: 0.071 for the first, -0.0272 for the second.

Going from ATAACAAT to ACCCCCAC, the “PBM E-score” value falls from 0.0186 to -0.19.

First: TAAGGGGA
Second: ATCATCGG
The “PBM E-score” value of the first is lower: -0.247 for the first, 0.353 for the second.

First: GCGCGTTA
Second: AGCGTCAA
The “PBM E-score” value of the first is higher: 0.0235 for the first, -0.0122 for the second.

Going from AGAGTCAT to ACTTCGAA, the “PBM E-score” value falls from 0.492 to 0.166.

Going from ATTGACGC to GGGCGCAC, the “PBM E-score” value falls from -0.0348 to -0.321.

Compared with CTCCCTAC, CAGTATCC is lower in “PBM E-score” value: -0.0867 for the first, -0.119 for the second.

First: CGGATAAC
Second: GAACCGAC
The “PBM E-score” value of the first is higher: 0.00893 for the first, -0.0237 for the second.

First: CGTGGTCA
Second: ATAAAATG
The “PBM E-score” value of the first is higher: 0.221 for the first, 0.0301 for the second.

First: ACTCTGGC
Second: AATATTAC
The “PBM E-score” value of the first is higher: 0.0882 for the first, 0.0601 for the second.

First: AGCGGGAT
Second: AAGGACCA
The “PBM E-score” value of the first is lower: -0.231 for the first, -0.026 for the second.

Compared with ATATCGCA, GATATGGC is lower in “PBM E-score” value: -0.0521 for the first, -0.175 for the second.

First: ATTTCATG
Second: ATTGAGTA
The “PBM E-score” value of the first is lower: 0.0433 for the first, 0.282 for the second.

Going from CTGTTGGA to AGACAGAA, the “PBM E-score” value rises from -0.0914 to 0.0973.

Compared with CCGGGAGG, CGAAATGA is higher in “PBM E-score” value: -0.302 for the first, 0.184 for the second.

Going from CAGAAGGC to GGAGACTA, the “PBM E-score” value rises from -0.176 to 0.375.
